Experimental findings from PubChem BioAssay (Tox21) are described below.

Several values for one entry are separate records, joined by “and”; a condition that tells them apart may be missing. Equal values may be shown once. The entries are a selection whose mix differs from that of the whole data set. Results filed as inconclusive are left out. Activity calls are given as the source filed them. Calls follow the shape of the dose curve; as a rule, active = well fitted curve in the direction sought with a large enough effect in the repeat runs; inconclusive = weak or mixed curves; inactive = no such curve, though single readings can be large; an effect the other way counts as inactive or inconclusive.
Potency is read from the fitted curve at half-maximal effect.

Sequence of UniProt Q12809 (Q12809 whole entry, looked up): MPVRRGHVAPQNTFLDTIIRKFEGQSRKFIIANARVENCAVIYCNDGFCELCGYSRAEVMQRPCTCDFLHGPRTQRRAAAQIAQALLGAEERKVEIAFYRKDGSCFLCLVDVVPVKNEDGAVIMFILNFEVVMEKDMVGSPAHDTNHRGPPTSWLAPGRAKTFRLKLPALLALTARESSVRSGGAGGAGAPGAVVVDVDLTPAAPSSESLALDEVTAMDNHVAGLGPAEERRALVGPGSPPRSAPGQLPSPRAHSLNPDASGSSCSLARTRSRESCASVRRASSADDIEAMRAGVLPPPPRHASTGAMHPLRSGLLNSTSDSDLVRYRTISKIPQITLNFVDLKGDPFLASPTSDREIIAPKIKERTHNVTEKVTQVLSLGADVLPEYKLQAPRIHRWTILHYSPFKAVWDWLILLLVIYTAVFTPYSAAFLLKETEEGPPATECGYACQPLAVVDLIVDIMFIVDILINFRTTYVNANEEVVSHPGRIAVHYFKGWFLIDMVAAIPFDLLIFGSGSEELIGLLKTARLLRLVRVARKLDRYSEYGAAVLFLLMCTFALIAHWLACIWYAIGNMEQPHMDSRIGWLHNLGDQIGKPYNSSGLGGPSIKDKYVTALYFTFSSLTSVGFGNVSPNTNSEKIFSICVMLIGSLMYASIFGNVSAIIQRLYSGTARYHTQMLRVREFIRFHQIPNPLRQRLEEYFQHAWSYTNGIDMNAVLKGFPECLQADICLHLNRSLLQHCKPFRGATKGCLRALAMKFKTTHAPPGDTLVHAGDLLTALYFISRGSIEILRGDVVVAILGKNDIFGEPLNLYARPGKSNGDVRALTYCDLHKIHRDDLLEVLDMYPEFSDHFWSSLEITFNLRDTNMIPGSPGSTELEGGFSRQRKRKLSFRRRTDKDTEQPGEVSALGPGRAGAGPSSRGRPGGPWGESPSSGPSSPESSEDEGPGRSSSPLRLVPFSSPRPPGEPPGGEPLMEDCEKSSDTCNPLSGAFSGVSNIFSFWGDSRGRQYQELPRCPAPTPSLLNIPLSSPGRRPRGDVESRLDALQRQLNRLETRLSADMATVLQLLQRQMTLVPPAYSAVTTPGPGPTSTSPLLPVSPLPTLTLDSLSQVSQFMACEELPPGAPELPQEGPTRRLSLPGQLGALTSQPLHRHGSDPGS

For one experiment, the target named is Aromatase (Homo sapiens) (UniProt P11511). The experiment can be described thus: qHTS assay to identify aromatase inhibitors (AID 743083). Also: nearly all actives have a fitted effect of over 55% in size. Conditions: MCF-7 aro ERE, testosterone-driven ERE luciferase, 24 h.
Sequence of UniProt P11511 (P11511 whole entry, looked up): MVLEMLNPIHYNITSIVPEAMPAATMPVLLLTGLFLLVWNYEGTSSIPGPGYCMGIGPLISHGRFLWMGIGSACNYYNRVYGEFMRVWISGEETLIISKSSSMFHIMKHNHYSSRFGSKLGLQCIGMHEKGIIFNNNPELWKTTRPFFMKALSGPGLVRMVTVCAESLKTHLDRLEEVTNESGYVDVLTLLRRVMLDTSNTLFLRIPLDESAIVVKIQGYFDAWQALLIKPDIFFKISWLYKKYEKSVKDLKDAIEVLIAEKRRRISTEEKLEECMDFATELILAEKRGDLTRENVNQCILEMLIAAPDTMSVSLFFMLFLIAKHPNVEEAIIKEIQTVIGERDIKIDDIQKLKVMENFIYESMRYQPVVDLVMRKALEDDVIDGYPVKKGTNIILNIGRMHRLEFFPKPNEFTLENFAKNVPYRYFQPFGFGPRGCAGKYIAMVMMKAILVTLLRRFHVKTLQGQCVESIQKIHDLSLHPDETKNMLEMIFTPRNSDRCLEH
Take `Clc1ccc(COC(Cn2ccnc2)c2ccc(Cl)cc2Cl)c(Cl)c1` (centres undefined): the Potency is active: 7.17 µM.
Turning to `CC(C)(C#N)c1cc(Cn2cncn2)cc(C(C)(C)C#N)c1`, the Potency is active: 335 nM and active: 119 nM.
`Clc1cccc(C(c2ccc3nc[nH]c3c2)n2ccnc2)c1` (centres undefined): the Potency was active: 0.422 µM.

Another experiment concerns the target Voltage-gated inwardly rectifying potassium channel KCNH2 (Homo sapiens) (UniProt Q12809). The experiment can be described thus: Human Ether-a-go-go-Related Gene (hERG) channel small molecule antagonists: fluorescence cell-based qHTS assay (AID 1671200). Also: nearly all actives have a fitted effect of over 50% in size. As to conditions: hERG-U2OS cells, FluxOR thallium flux fluorescence. The essentials:
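Thallium flux as potassium surrogate: FluxOR II dye loaded 1 h at room temperature into hERG-expressing U2OS cells, then stimulus buffer added after 10 min. Kinetic 480 nm excitation/540 nm emission read, 2 min.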
In general terms: Block of hERG is tested as a sign of cardiac risk.
On to `C(=C\c1ccccc1)/CN1CCN(C(c2ccccc2)c2ccccc2)CC1`, for which the Potency was active: 0.756 µM.
Take `CCN(CC)CCOc1ccc(/C(=C(\Cl)c2ccccc2)c2ccccc2)cc1`: the Potency is active: 3.54 µM and active: 2.39 µM.
For `CN1CCC(=C2c3ccccc3C=Cc3ccccc32)CC1`, the Potency was active: 10.7 µM.
`CCN(CC)CCOC(=O)C1(C2CCCCC2)CCCCC1`: the Potency is active: 9.52 µM.
Same read-out and setting: then `Cc1ccccc1C(OCCN(C)C)c1ccccc1` (centres undefined), with active: 21.9 µM and active: 24.5 µM and active: 16.9 µM; and `O=c1n(CCCN2CCN(c3cccc(Cl)c3)CC2)nc2ccccn12`, with active: 12.3 µM and active: 8.49 µM.
